The campaign covered roughly 110,000 compounds. About 230 (0.21%) showed an effect of 50% or more. This is one part of the list.
target: DPAP1 (Plasmodium falciparum, UniProt Q8IIJ9); test: primary screen, percent inhibition; read by cleavage of a fluorogenic dipeptide substrate; higher = more effect of the substance; parameters: species or system P. falciparum D10 trophozoite lysates; single well
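Further: 30 min substrate incubation versus DMSO and 10 µM JCP410 controls.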

DPAP1, sequence (Q8IIJ9 whole entry, looked up): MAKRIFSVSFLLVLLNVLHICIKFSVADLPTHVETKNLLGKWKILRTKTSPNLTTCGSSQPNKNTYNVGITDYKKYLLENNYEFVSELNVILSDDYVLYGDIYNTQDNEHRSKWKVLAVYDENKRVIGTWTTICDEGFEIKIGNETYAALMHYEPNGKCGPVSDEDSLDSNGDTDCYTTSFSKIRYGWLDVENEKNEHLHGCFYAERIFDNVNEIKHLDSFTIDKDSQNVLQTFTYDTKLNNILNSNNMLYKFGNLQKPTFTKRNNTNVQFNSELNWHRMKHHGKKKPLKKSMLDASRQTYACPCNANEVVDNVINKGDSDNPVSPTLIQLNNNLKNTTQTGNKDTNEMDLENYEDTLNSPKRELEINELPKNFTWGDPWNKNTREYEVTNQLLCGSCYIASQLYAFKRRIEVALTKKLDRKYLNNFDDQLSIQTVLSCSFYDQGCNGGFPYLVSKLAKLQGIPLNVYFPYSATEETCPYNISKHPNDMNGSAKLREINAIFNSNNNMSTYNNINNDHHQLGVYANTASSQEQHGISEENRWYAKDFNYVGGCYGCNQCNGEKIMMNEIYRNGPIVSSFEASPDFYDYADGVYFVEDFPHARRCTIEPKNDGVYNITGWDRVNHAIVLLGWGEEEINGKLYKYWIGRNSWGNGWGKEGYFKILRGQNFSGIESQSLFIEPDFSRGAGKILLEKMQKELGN

Compound	% Inhibition @ 10 uM [%]
CCOC(=O)c1ccc(/C=C/c2ccccn2)cc1	-1.11
COc1ccc2c(c1)CC/C(=C/c1ccc(OC)c(OC)c1OC)C2=O	1.07
COc1ccc(CC/N=C2\CC(C)(C)CC(O)=C2C(=O)Cc2ccccc2)cc1OC	-5.15
Cc1cc(NS(=O)(=O)c2ccc(NC(=O)c3cc(-c4ccc(C)o4)nc4ccccc34)cc2)no1	-0.469
COc1ccc(C2=N/C(=C\c3ccco3)C(=O)O2)cc1OC	6.11
CCCCNc1nc2c(S(=O)(=O)c3ccccc3)nnn2c2ccsc12	4.84
CCOc1ccc(NC(=O)c2cc(C)cc(C)c2)c([N+](=O)[O-])c1	-2.15
Cc1cccc(OCC(=O)NCc2ccc(F)cc2)c1C	-4.56
CCN1CCN(c2c(S(=O)(=O)c3ccc(C)cc3)cnc3ccc(Cl)cc23)CC1	-9.11
CCN1C(=O)/C(=C\c2ccc(OC)c(OC)c2)S/C1=N/c1ccccc1	-1.57
CCN(Cc1ccccc1)C(=O)CCc1nc(-c2ccc(C)cc2)no1	-2.8
COCCN1C(=O)c2ccccc2C(C(=O)N2CC(C)CC(C)C2)C1c1cccs1 (stereo not drawn)	1.64
O=C(CCc1ccccc1)n1nc(-c2ccc(Cl)cc2)nc1NCc1ccco1	3.93
CC1(C)CC(OC(=O)c2ccccc2)CC(C)(C)N1	3.03
O=C(NCCCCc1ccccc1)c1cccs1	-2.36
CCOC(=O)N1CCC(NCc2c(C(=O)O)c(C)n(Cc3ccccc3C)c2C)CC1	-0.23
Cc1nn(C(=O)Cc2ccc(Cl)cc2)c(C)c1Br	-0.597
C=CCN1C(=O)/C(=C/c2ccco2)C(=O)NC1=S	3.03
Cc1ccc(Cn2nnc3c(=O)n(CC(=O)N4CCCC4)cnc32)cc1	-2.16
FC(F)(F)c1ccc(-c2noc(/C=C/c3ccccc3)n2)cc1	2.62
CCCC(=O)C1=C(NC(C)C)CC(C)(C)CC1=O	-1.59
O=C(c1cccc(Cl)c1)N1CCN(C/C=C/c2ccccc2)CC1	2.78
Cc1ccc(S(=O)(=O)NCC(=O)N2CCN(c3cccc(Cl)c3)CC2)cc1	0.161
CCC(=O)N1C(C(=O)NCc2ccc3c(c2)OCO3)CSC12CCN(C)CC2 (stereo not drawn)	-0.128
COc1cc(C2C(C#N)=C(N)Oc3c2cc(Cl)c2ccccc32)cc(OC)c1OC (stereo not drawn)	6.13
COc1ccc(CCN(Cc2ccccn2)S(=O)(=O)c2ccc(Cl)cc2)cc1OC	8.2

Compound	% Inhibition @ 10 uM [%]
O=C1NC(=O)C(=Cc2cccn2-c2ccc([N+](=O)[O-])cc2)C(=O)N1	-6.29
O=C(NCc1ccc2c(c1)OCO2)C1CCCN(c2ncnc3c2nc2n3CCCCC2)C1 (stereo not drawn)	4.83
O=C(NCCOC12CC3CC(CC(C3)C1)C2)c1nc(-c2cccnc2)no1	-0.788
O=C(NCc1cccnc1)C(Cc1ccccc1)NS(=O)(=O)c1cccc2nsnc12 (stereo not drawn)	2
COc1ccc(NC(=O)c2cc(CC(C)C)oc2C)cc1	5.09
CCCc1cc(O)n2nc(C(F)(F)F)nc2n1	-6.71
COc1ccc(C(=O)C2=C(O)C(=O)N(CCN(C)C)C2c2ccccc2F)cc1 (stereo not drawn)	0.487
COc1ccc(N(CC(=O)Nc2cccc(Br)c2)S(C)(=O)=O)c(OC)c1	2.02
COc1cc(/C=C2/C(=N)N3N=C(c4ccccc4C)SC3=NC2=O)ccc1O	0.484
CC(CCN1CCOCC1)c1ccccc1 (stereo not drawn)	6.06
Brc1ccc2c(c1)CNc1cccnc1O2	3.24
Cc1cccnc1NC(=O)Nc1cccs1	-3.1
O=C(O)C1C2CCC(O2)C1C(=O)NCc1cccs1 (stereo not drawn)	-2.68
Cn1cccc1/C=C1\SC(=O)N(CC(=O)Nc2ccc(Cl)cc2)C1=O	7.87
CCc1nc2ccc(C(=O)NCc3cccc(C)c3)cc2nc1CC	4.38
c1ccc(Nc2nc(N3CCOCC3)nc(N3CCOCC3)n2)cc1	-0.902
COc1cc(Br)ccc1C1/C(=C(\O)OC2CCCCC2)C(C)=Nc2ncnn21 (stereo not drawn)	-5.33
N#Cc1cc2c(=O)n3ccccc3nc2n(C2CCS(=O)(=O)C2)c1=O (stereo not drawn)	-0.551
CC(C)CCNC(=O)c1ccc(-c2ccccc2)s1	-0.447
Cc1cc(C(F)F)n2nc(C(=O)Nc3ccc(S(=O)(=O)N4CCCCCC4)cc3)nc2n1	-0.425
CC(C)Sc1nc(N2CCCCC2)c2c(c1C#N)CCCC2	-4.7
Cc1cccc(Cn2c(Br)nc3c2c(=O)n(C)c(=O)n3C)c1	-2.32
Cc1cc(C)c2oc(C(=O)N3CCN(Cc4ccccc4)CC3)cc(=O)c2c1	1.9
CC(C)NC(=O)C1CCN(c2nn3cc(-c4ccc(F)cc4)nc3s2)CC1	6.04
CC1=C(C#N)C(c2cccc(Cl)c2Cl)C2=C(O)CC(c3ccccc3)CC2=N1 (stereo not drawn)	-2.2
